The results in this text go back to the antibiotic and cytotoxicity screens of Wong et al. (2023).

One assay deals with HSkMC. Briefly: cytotoxicity call (relative viability < 0.9). The settings on record: 10 µM.
In the next assay the test system is HepG2. Briefly: cytotoxicity call (relative viability < 0.9). The settings on record: 10 µM.
The test system of another assay is S. aureus RN4220. Kind of assay: growth inhibition call (relative growth <= 0.2). The settings on record: 50 µM.

The other results are listed elsewhere or left out.

With `COc1ccc(S(=O)(=O)N(C)C[C@H]2Oc3ccc(NS(=O)(=O)c4cccs4)cc3CC(=O)N([C@H](C)CO)C[C@@H]2C)cc1`, the cytotoxicity call in the assay on HSkMC and in the assay on HepG2 was “inactive” each time. Moreover, the growth inhibition call in the assay on S. aureus RN4220 was “inactive”.
`COc1ccc(S(=O)(=O)Nc2ccc3c(c2)C(=O)N([C@@H](C)CO)C[C@H](C)[C@@H](CN(C)CC2CCCCC2)OCCCC[C@H](C)O3)cc1`: the cytotoxicity call with HSkMC and in the assay with HepG2 was “inactive” each time. Moreover, in the assay on S. aureus RN4220, the growth inhibition call is “inactive”.
Take `CCCNC(=O)N(C)C[C@@H]1Oc2cc(-c3ccc(C)cc3)ccc2S(=O)(=O)N([C@H](C)CO)C[C@H]1C`: the cytotoxicity call in the assay on HSkMC and in the assay with HepG2 was “inactive” throughout. Also, the growth inhibition call in the assay on S. aureus RN4220 is “inactive”.
For the compound `C[C@@H]1CN([C@H](C)CO)C(=O)c2cc(NS(=O)(=O)c3cn(C)cn3)ccc2O[C@@H](C)CCCCO[C@@H]1CN(C)C(=O)CCCN(C)C`, the cytotoxicity call with HSkMC and in the assay with HepG2 was “inactive” each time. Further, the growth inhibition call with S. aureus RN4220 is “inactive”.
`O=c1[nH]c(=O)n([C@H]2C[C@H](O)[C@@H](CO)O2)cc1CO`: the cytotoxicity call in the assay with HSkMC and in the assay on HepG2 was “inactive” in each case. For the same compound, the growth inhibition call with S. aureus RN4220 is “inactive”.
Regarding `C[C@@H]1CN([C@@H](C)CO)C(=O)c2cc(NC(=O)CCC(F)(F)F)ccc2O[C@@H](C)CCCCO[C@H]1CN(C)S(=O)(=O)c1ccc(F)cc1`, the cytotoxicity call in the assay with HSkMC and in the assay on HepG2 was “inactive” in each case. Also, the growth inhibition call with S. aureus RN4220 is “inactive”.
With `COc1cccc(-c2ccc3c(c2)O[C@H](CN(C)C(=O)C2CCC2)[C@@H](C)CN([C@@H](C)CO)S3(=O)=O)c1`, the cytotoxicity call with HSkMC and with HepG2 was “inactive” each time. Moreover, the growth inhibition call in the assay with S. aureus RN4220 is “inactive”.
Consider `C[C@H](CO)N1C[C@H](C)[C@H](CN(C)C(=O)Nc2ccc3c(c2)OCO3)Oc2c(NS(=O)(=O)c3cn(C)cn3)cccc2C1=O`, for which the cytotoxicity call in the assay on HSkMC and in the assay with HepG2 was “inactive” throughout. The growth inhibition call with S. aureus RN4220 was “inactive”.
For the compound `C/C=C1\[C@@H](O[C@H]2O[C@@H](CO)[C@@H](O)[C@@H](O)[C@@H]2O)OC=C(C(=O)OC)[C@H]1CC(=O)OC[C@H]1[C@H](C)[C@H](OC(=O)C[C@@H]2C(C(=O)OC)=CO[C@H](O[C@H]3O[C@@H](CO)[C@@H](O)[C@@H](O)[C@@H]3O)/C2=C\C)C[C@@H]1[C@H](CO)COC(=O)C[C@@H]1C(C(=O)OC)=CO[C@@H](O[C@H]2O[C@@H](CO)[C@@H](O)[C@@H](O)[C@@H]2O)/C1=C\C`, the cytotoxicity call in the assay with HSkMC and in the assay on HepG2 was “inactive” each time. Besides, the growth inhibition call with S. aureus RN4220 was “inactive”.
In the case of `CC1(C)CCC(CN2CCN(c3ccc(C(=O)NS(=O)(=O)c4ccc(NCC5CCOCC5)c([N+](=O)[O-])c4)c(Oc4cnc5[nH]ccc5c4)c3)CC2)=C(c2ccc(Cl)cc2)C1`, the cytotoxicity call with HSkMC and with HepG2 was “inactive” each time. Besides, in the assay with S. aureus RN4220, the growth inhibition call was “inactive”.
With `O=C(C1=C[C@@H](c2ccc(C(F)(F)F)cc2)C[C@@H](OCc2ccc(CO)cc2)O1)N1CCCCCCC1`, the cytotoxicity call with HSkMC and in the assay with HepG2 was “inactive” throughout. Moreover, the growth inhibition call in the assay on S. aureus RN4220 is “inactive”.
In the case of `Cn1cnc(S(=O)(=O)N[C@@H]2C=C[C@@H](CC(=O)Nc3ccccc3)O[C@H]2CO)c1`, the cytotoxicity call with HSkMC and with HepG2 was “inactive” throughout. Further, in the assay on S. aureus RN4220, the growth inhibition call was “inactive”.
As to `O=C(C[C@H]1CC[C@@H]2[C@H](COC[C@H](O)CN2C(=O)Nc2ccc(Cl)c(Cl)c2)O1)NCc1ccc(Cl)c(Cl)c1`, the cytotoxicity call with HSkMC is “inactive”. Besides, the cytotoxicity call in the assay with HepG2 is “active”. For the same compound, in the assay on S. aureus RN4220, the growth inhibition call was “inactive”.
For the compound `COc1nonc1NC(C)=O`, the cytotoxicity call in the assay on HSkMC and in the assay with HepG2 was “inactive” in each case. In the assay with S. aureus RN4220, the growth inhibition call is “inactive”.
Regarding `C[C@@H]1CN([C@H](C)CO)C(=O)c2cc(NC(=O)Nc3cccc4ccccc34)ccc2O[C@@H](C)CCCCO[C@@H]1CN(C)S(=O)(=O)c1cccs1`, the cytotoxicity call in the assay with HSkMC and with HepG2 was “inactive” each time. The growth inhibition call in the assay on S. aureus RN4220 was “inactive”.
Turning to `C[C@@H]1CN([C@H](C)CO)C(=O)Cc2cc(NS(=O)(=O)c3ccc(F)cc3)ccc2O[C@H]1CN(C)S(=O)(=O)c1ccc(F)cc1`, the cytotoxicity call with HSkMC and in the assay on HepG2 was “inactive” each time. Moreover, in the assay with S. aureus RN4220, the growth inhibition call was “inactive”.
As to `O=C(NC1Cc2ccccc2C1)[C@H]1[C@H](CO)[C@H]2Cn3c(cccc3=O)[C@H]2N1C(=O)c1cnccn1`, the cytotoxicity call in the assay on HSkMC (human skeletal muscle cells) and in the assay on HepG2 was “inactive” in each case. Also, the growth inhibition call in the assay on S. aureus RN4220 was “inactive”.
Take `COc1cccc(S(=O)(=O)N2C[C@@H](O)COC[C@H]3O[C@@H](CC(=O)N4CCN(C)CC4)CC[C@@H]32)c1`: the cytotoxicity call in the assay with HSkMC and in the assay on HepG2 was “inactive” throughout. The growth inhibition call with S. aureus RN4220 was “inactive”.
For the compound `CCCN1C(=O)C[C@@H](N2CCOCC2)C1=O`, the cytotoxicity call with HSkMC and in the assay on HepG2 was “inactive” each time. For the same compound, the growth inhibition call in the assay on S. aureus RN4220 is “inactive”.
